Results as given in PubChem BioAssay (NCATS).
This list was built around the results that the source calls inconclusive (neither active nor inactive); the mix of calls is not that of the screen. Potencies of inconclusive entries are left out as doubtful fits. Calls of active or inactive are those of the source. Calls follow the shape of the dose curve; as a rule, active = well fitted inhibition curve with a large enough effect; inconclusive = small, poorly fitted or top-dose-only effect; inactive = no such curve, though single readings can be large or run the other way.

Molecular target: Rap guanine nucleotide exchange factor 3 (Homo sapiens) (UniProt O95398)
Sequence of UniProt O95398 (O95398 whole entry, looked up): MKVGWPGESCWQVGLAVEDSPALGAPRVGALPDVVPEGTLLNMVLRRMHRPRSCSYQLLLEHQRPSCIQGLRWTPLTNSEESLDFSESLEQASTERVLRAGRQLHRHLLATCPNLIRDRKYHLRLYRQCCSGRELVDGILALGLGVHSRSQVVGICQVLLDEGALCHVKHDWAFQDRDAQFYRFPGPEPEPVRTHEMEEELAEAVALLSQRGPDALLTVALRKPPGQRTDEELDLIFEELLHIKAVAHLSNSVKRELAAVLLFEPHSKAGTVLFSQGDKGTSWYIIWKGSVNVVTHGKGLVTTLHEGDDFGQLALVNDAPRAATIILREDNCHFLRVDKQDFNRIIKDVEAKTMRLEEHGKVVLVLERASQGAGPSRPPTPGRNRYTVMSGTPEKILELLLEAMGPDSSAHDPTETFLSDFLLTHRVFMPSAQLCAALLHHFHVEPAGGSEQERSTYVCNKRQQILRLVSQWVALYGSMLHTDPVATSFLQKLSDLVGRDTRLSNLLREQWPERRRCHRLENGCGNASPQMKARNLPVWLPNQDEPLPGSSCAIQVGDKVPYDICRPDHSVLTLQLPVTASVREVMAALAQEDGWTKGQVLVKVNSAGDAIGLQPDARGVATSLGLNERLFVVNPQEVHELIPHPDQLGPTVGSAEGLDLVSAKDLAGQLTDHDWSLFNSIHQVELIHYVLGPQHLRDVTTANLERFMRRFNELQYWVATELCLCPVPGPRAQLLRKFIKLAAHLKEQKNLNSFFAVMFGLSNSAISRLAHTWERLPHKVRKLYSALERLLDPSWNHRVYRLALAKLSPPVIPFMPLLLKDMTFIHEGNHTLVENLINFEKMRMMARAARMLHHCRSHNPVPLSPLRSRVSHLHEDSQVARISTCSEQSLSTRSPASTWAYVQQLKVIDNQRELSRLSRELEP
Experiment: Confirmatory qHTS for antagonist of cAMP-regulated guanine nucleotide exchange factor 3 (EPAC1) (AID 1645880); also: nearly all actives have a fitted effect of over 55% in size;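 as to activity, negative = inhibition: plate controls were DMSO only for no effect and full effect of the ATA control for full effect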
Conditions: EPAC1 Rap1B-BODIPY-GDP exchange, fluorescence; activity, negative = inhibition: at 115 µM (top of the series)
Outline: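 Released BODIPY-GDP fluoresces less than Rap1-bound BODIPY-GDP; the signal is followed at 480/540 nm at 5-min intervals over 30 min, after 5 min at room temperature. Reactions contain 100 nM EPAC1, 250 nM RAP1B-BODIPY-GDP and 50 uM GDP; results are normalized to ATA and DMSO.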
Potency is read from the fitted curve at half-maximal effect; tags tell the direction and shape of the fitted curve.

SMILES | activity, negative = inhibition | Potency
CC(=O)Nc1ccc(SC[C@H](C)CN2CC[C@H](C(C)(C)C)CCC2=O)cc1 | inactive: -19.7% | 
COc1ccc(-c2nc3ccccc3n2CCC(C)C)cc1OC |  | inconclusive [inhibitor, partial curve, poor fit]
O=C(Cn1cnc2scc(-c3cccc([N+](=O)[O-])c3)c2c1=O)NCc1ccco1 |  | active: 37.9 µM
CC(=O)N(CCC(c1ccco1)C(C)C)Cc1ccc(OC(C)C)cc1 (stereo not given) |  | inconclusive [inhibitor, partial curve]
COC(=O)C1=C(C)N(Cc2ccco2)C(=O)N[C@H]1c1cccc(C(F)(F)F)c1 |  | inconclusive [inhibitor, partial curve]
CCN1CCc2c(sc(NC(=O)c3ccc(S(=O)(=O)N4CCCCCC4)cc3)c2C(=O)NC)C1 | inactive: 206% | 
Cc1ccc(OCCn2c(=O)n(C)c3ccccc32)cc1 | inactive: -25.9% | 
N#C/C(=N\Nc1cccc(C(F)(F)F)c1)C(=O)c1ccsc1 |  | inconclusive [inhibitor, partial curve, poor fit]
C/C(=N\NS(=O)(=O)c1ccccc1)c1cc(Cl)cc(Cl)c1O |  | active: 33.8 µM
COCC(=O)Oc1c(Sc2ccccc2[N+](=O)[O-])c(C)nn1C(C)(C)C |  | inconclusive [inhibitor, partial curve]
CC1CCC2=NN(C(=O)c3ccco3)C(O)(C(F)(F)F)C2C1 (stereo not given) | inactive: -15.8% | 
CC1(C)C=CC(=O)[C@]2(C)C1CC(=O)[C@]1(C)C2CC[C@@]2(C)C(c3ccoc3)OC(=O)C3OC321 (stereo not given in full) | inactive: -20.4% | 
C[C@H](c1ccccc1)N1C[C@H](COCc2ccccc2)Oc2cc(N3CC[C@@H](O)C3)ccc2S1(=O)=O |  | inconclusive [inhibitor, full curve, poor fit]
O=S(=O)(Nc1nc2ccccc2nc1Nc1cccc(S(=O)(=O)N2CCCCC2)c1)c1ccccc1 |  | active: 56.2 µM
CCSc1nc2ccccc2c(OCc2ccccc2Cl)c1C(=O)OC | inactive: -21.6% | 
Cc1ccc2c(c1)-c1c(c(C(=O)N3CCN(c4cc(C)ccc4C)CC3)nn1C)CS2 | inactive: -31.5% | 
CC(=O)Nc1cccc(/C(C)=N/Nc2ccc(S(=O)(=O)Nc3ccccc3C(=O)O)cc2[N+](=O)[O-])c1 |  | active: 21.3 µM
Cc1oc2c(O)c(O)ccc2c(=O)c1-c1cnn(-c2ccccc2)c1 |  | inconclusive [inhibitor, full curve]
COC(=O)c1scc(C#N)c1N/N=C(\C#N)S(=O)(=O)c1ccc(Cl)cc1 |  | active: 47.8 µM
CCCCN1CC(c2nc3ccccc3n2CCCCOc2cc(C)cc(C)c2)CC1=O (stereo not given) |  | inconclusive [inhibitor, partial curve]

SMILES | activity, negative = inhibition | Potency
O=C(c1ccccc1[N+](=O)[O-])N1CCN(c2ccc(N3CCOCC3)nn2)CC1 | inactive: -12% | 
O=Nc1c(O)c2ccccc2c2ccccc12 |  | inconclusive [inhibitor, partial curve, poor fit]
C/C=C/c1cc(OC)c2c(c1)[C@H](C)[C@@H](c1ccc(O)c(OC)c1)O2 |  | inconclusive [inhibitor, partial curve, poor fit]
COc1ccc(C(=O)N2CCC3(CCN(Cc4cc(C(F)(F)F)cc(C(F)(F)F)c4)CC3)CC2)cc1 |  | inconclusive [inhibitor, partial curve]
Cn1c(COc2ccc(Cl)cc2)nc2ccccc2c1=O |  | active: 25.1 µM
COc1ccc(/C=N/NC(=O)c2cc(C(C)(C)C)[nH]n2)cc1COc1ccc(F)cc1F |  | inconclusive [inhibitor, partial curve]
CCOc1ccc(/C=C2\SC(=S)N(NS(=O)(=O)c3ccc(C)cc3)C2=O)cc1OC |  | active: 56.2 µM
CC1(C)[C@@H](O)CC[C@]2(C)C3C(O)C=C4[C@H]5C[C@@](C)(CO)CC[C@]5(C)CC[C@]4(C)[C@]3(C)CC[C@@H]12 (stereo not given in full) |  | inconclusive [inhibitor, partial curve]
COc1ccc(-c2[nH]c(-c3ccc(F)cc3)nc2SCC(=O)Nc2ccc(OC)c(OC)c2)cc1 |  | inconclusive [inhibitor, partial curve, poor fit]
CCN(CC)c1ccc(C(=O)OCC(=O)NCC2CCCO2)cc1 (stereo not given) | inactive: -12.4% | 
CCc1cccc(C)c1Nc1c(-c2ccsc2)nc2ncccn12 |  | inconclusive [inhibitor, partial curve]
CCOC(=O)Cn1c(=O)oc2cc(S(=O)(=O)Nc3c(C)cc(C)cc3C)ccc21 | inactive: -11.7% | 
Nc1ccc(C(=O)N/N=C/c2cn(Cc3ccccc3F)c3ccccc23)cc1 |  | inconclusive [inhibitor, partial curve, poor fit]
CCCc1nc(SC2CCCC2)c2c(=O)n(C)c(=O)n(C)c2n1 |  | inconclusive [inhibitor, full curve, poor fit]
O=C(Nc1ccc(Br)cc1C(=O)O)c1ccc2c(c1)C(=O)N(Cc1ccccc1)C2=O |  | inconclusive [inhibitor, partial curve]
CC(C)(C)c1ccc(C(=O)NCC2CCCN2S(=O)(=O)c2ccccc2)cc1 (stereo not given) |  | inconclusive [inhibitor, partial curve, poor fit]
O=C1/C(=C/c2ccc(F)cc2)SC(=S)N1NS(=O)(=O)c1ccccc1 |  | active: 16.9 µM
C=CCOc1ccc(/C=C2\SC(=S)N(NS(=O)(=O)c3ccc(C)cc3)C2=O)cc1 |  | active: 21.3 µM
CC(C)C[C@H]1COCCS(=O)(=O)N1Cc1cccc(Cl)c1 |  | inconclusive [inhibitor, partial curve]
CCCC(CNC(C)=O)(C1=CCCCC1)c1ccccc1 (stereo not given) | inactive: -17.5% | 
